In the assay the target is T1, MST2 (recombinant, wildtype) (human), Q13188.
T1 chain: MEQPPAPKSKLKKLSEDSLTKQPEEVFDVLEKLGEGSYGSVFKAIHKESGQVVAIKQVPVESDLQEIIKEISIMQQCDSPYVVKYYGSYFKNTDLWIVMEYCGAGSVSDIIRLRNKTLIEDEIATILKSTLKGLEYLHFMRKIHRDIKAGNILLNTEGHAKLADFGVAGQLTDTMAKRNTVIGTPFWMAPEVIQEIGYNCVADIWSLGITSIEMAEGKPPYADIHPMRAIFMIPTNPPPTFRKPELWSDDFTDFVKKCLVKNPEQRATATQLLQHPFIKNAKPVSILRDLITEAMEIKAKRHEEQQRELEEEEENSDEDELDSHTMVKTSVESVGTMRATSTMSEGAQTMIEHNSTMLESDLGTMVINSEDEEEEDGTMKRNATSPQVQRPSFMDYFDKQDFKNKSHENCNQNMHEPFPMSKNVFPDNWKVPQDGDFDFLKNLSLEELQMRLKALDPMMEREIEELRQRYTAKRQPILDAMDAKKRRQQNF
Description: pull-down; MBP pulldown: MBP-tagged protein, partner and amylose resin mixed at 4 °C for 1 h in 20 mM HEPES (pH 7.5), 100 mM NaCl; eluted with 20 mM maltose; SDS-PAGE, Coomassie staining; both purified. Particulars: remark: other sources report otherwise.

No constants are given. Whether binding was seen depends on the method and setting.

B1: SIKE1 (recombinant, limits not stated), Q9BRV8 1-207 (protein)
chain: MSCTIEKILTDAKTLLERLREHDAAAESLVDQSAALHRRVAAMREAGTALPDQYQEDASDMKDMSKYKPHILLSQENTQIRDLQQENRELWISLEEHQDALELIMSKYRKQMLQLMVAKKAVDAEPVLKAHQSHSAEIESQIDRICEMGEVMRKAVQVDDDQFCKIQEKLAQLELENKELRELLSISSESLQARKENSMDTASQAIK
Take B1: the binding result is listed as “no binding”.

The values are drawn from publication PMC6323126.
